According to article PMC12136788:
This is one part of the list.

T1: UNK ZnF1-3 (human, UniProt Q9C0B0 31-174)
T1 sequence: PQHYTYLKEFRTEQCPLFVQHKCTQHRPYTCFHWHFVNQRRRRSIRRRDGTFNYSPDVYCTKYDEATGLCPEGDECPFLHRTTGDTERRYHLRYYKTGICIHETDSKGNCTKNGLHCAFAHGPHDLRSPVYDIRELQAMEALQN

B1: chr8:95952310:95952311:-_ENSG00000164938_ENST00000448464|hu_hu|FALSE|FALSE (ssRNA)
RNA: GGGAGUUCUACAGUCCGACGAUCUGGGGGUGGGGUGAUAAACCAGCUCUCCUCCAUUGGACAUGACUCAAACUGGAGAAAGCAGGAAUCACUUGUAUCAGCCAAGCACUCAAGAGAUGCCGGUAAACAGGAAAAGACUGAAGGCAACAGAGGAUUGAGCAUCA
B2: chr14:63761926:63761927:+_ENSMUSG00000021939_ENSMUST00000006235|mus_mus|FALSE|FALSE (ssRNA)
RNA: GGGAGUUCUACAGUCCGACGAUCCUGCCAAUGUCAAGCAGAGGGAGAAUUGGUUUAUUGGCACAGACAUUCCUUGUUAAACUACAGGGUUAAGUGGUAACUACAACAAAAAGCAAGUUUUUUUUUCCAGACUAGUUUCAUUGUCAACAGAGGAUUGAGCAUCA
B3: chr14:89338683:89338684:+_ENSG00000165533_ENST00000346301|hu_hu|hu_hu_hu_mus_False|98_98 (ssRNA)
RNA: GGGAGUUCUACAGUCCGACGAUCGUGGUUGUUGUGGACCAGAGCCAGCCUGAAGCAUUGGUGGGCCAAGUUUGUAUCUCCGAUUCCCACAGCUAUGUGCCCCAGGUUGUACCAGACAUCAGCUGCCUCUUCUUCAUUUUCAGCCAACAGAGGAUUGAGCAUCA
B4: chr7:54823571:54823572:-_ENSG00000132432_ENST00000352861|hu_mus|hu_hu_hu_mus_False|28_48 (ssRNA)
RNA: GGGAGUUCUACAGUCCGACGAUCUCCCAUGAUAGCAAAUCCUAUAGCUGUAGCCAUGGCAAUCUUCUGGAAUUCUUUUCUGUCGGGUUUAGUGCAUCUUUUAACCAGCCGAAUGGAGUCCUUUACAAACUGCCGGCUGGGCUCCAACAGAGGAUUGAGCAUCA
B5: chr11:96688998:96688999:-_ENSMUSG00000038615_ENSMUST00000081775|mus_hu|FALSE|FALSE (ssRNA)
RNA: GGGAGUUCUACAGUCCGACGAUCCCACCCGUACCCCAAUCAAACUCAGCAGAAUGGUGAACUGGAGAAGUCCUUCCGUUAAGUAUUUCUUCAGAGAAAGCAUUGCUGAAGGACCAGAAUGUUUAUGCUUUUUGGUUUUUAAAACAACAGAGGAUUGAGCAUCA
B6: chr5:92386950:92386951:-_ENSMUSG00000029397_ENSMUST00000031345|mus_mus|FALSE|FALSE (ssRNA)
RNA: GGGAGUUCUACAGUCCGACGAUCCUGCUGGGCAUGUUGGAGUUUUUCACAGUUGAUGCACUGCACUUCCUUGACUUUGAAACGAUCUAGCUGAUGAUCUUCAUUGGUAUCGUGACACAGCCGGCAGGUAUAAAGCUUGUCACACAACAGAGGAUUGAGCAUCA
B7: chr14:21838049:21838050:-_ENSG00000092201_ENST00000216297|hu_mus|motif|central (ssRNA)
RNA: GGGAGUUCUACAGUCCGACGAUCGUUGAGCUCACCGUCCUCUUUCACAGCAAUGGUGUAUGCCACAACAGCGCUGAUGUCGGCUUUGUCAAAGCCCUCCUUGUUGAGACAAUCACUCCAGCUCUUCAUGAACUCUCCAGGGAACAACAGAGGAUUGAGCAUCA
B8: 173317039_173317159_757_CDS_ENSG00000113742_ENST00000334035|human|control|control (ssRNA)
RNA: GGGAGUUCUACAGUCCGACGAUCUGUCAACACUGGAGAUUCGAUCCUUAUUUUCUCCUUCCCAUUGCCAUUUUCCGAAGAAUUGUCCCCUUGAUUUUCUUCUGAUUUUGCCUUCUCUGUUUCAGGCAGUAUUCCAGCUUCCUGCAACAGAGGAUUGAGCAUCA
B9: chr10:33190432:33190433:-_ENSG00000150093_ENST00000302278|hu_mus|hu_hu_hu_mus_True|38_58 (ssRNA)
RNA: GGGAGUUCUACAGUCCGACGAUCUACAUUUUCCAAACCUGCAUGUGAAUAAAACCCUGGCCACAGAGCCCCAAAACUACCUAACUGUGACUAAGAUAAUUGCUACUUGAGCUUGGUGUUGCAAAAUCCGCCUGAGUAGGAUUCCAACAGAGGAUUGAGCAUCA
B10: chr7:149068622:149068623:-_ENSMUSG00000025139_ENSMUST00000001950|mus_hu|mus_mus_mus_hu_False|28_78 (ssRNA)
RNA: GGGAGUUCUACAGUCCGACGAUCGUGAGGCCUCUGAGUGUGGCUUGUGGUCUGUCCUGUCUGCAGUUUGUUAAUAUCACGGAACAUACCAUCUAGAACGUUCCAGUCUGCCUGACUACCUUCAUUCCCAAUGGAGAAGAAAUCCAACAGAGGAUUGAGCAUCA
B11: chr2:153237265:153237266:-_ENSMUSG00000061411_ENSMUST00000109784|mus_mus|mus_mus_mus_hu_False|98_108 (ssRNA)
RNA: GGGAGUUCUACAGUCCGACGAUCAAAAAAAAGAAAAGAAAAGUGUCCUUGUGCCCAAAGUCUCAGGUGCUUGGAGUGUGGCUAGAAACAGCUCUUUUGGAUCCCACCUCUUUCAAAAACAAAAUGUACCAACUGGUGAGGCAGCAACAGAGGAUUGAGCAUCA
B12: 117129742_117132029_945_3pUTR_ENSMUSG00000020184_ENSMUST00000020408|mouse|control|control (ssRNA)
RNA: GGGAGUUCUACAGUCCGACGAUCAUCCUGAUCCAGGCAAUCACCAGAAUGCUCACUUACGCCAUCGUCAAGAUCCUGAUGCGAGGGCGUCUCUGUGGACUCGCUGCUGCUGCUGCUACUGCUGCUGCUGCCGCCGCUGCACAUCAACAGAGGAUUGAGCAUCA
B13: 18226451_18236780_1457_3pUTR_ENSG00000124795_ENST00000397239|human|control|control (ssRNA)
RNA: GGGAGUUCUACAGUCCGACGAUCAAGUAGGAUAAUUUUCAUAGACCUUUUUGCAAAUCUGUUUCAUUGUGACUUCUUCCAAGUUAGCACUGGCCAGUAAUUUCUUUAUUGUUUCCUUUAACUCUUCAUCUGUAGGGGGUUUCUCAACAGAGGAUUGAGCAUCA
B14: chr18:35732044:35732045:+_ENSMUSG00000037236_ENSMUST00000166793|perfect_dup|motif|central (ssRNA)
RNA: GGGAGUUCUACAGUCCGACGAUCGAUUUGGGGCAAAUUCUCAGGAGUAAUCUUGUCCUCUGGAUAACGACUCAGUUCAUCGGAGUCUCUAGCAGACAGACCAAAGCUGGCCAAAAUGUUACUGGCCUGGUCUGCAUCUCCACGCAACAGAGGAUUGAGCAUCA

These binders were tested against T1, UNK ZnF1-3 (assay: nsRBNS (natural sequence RNA bind-n-seq); RBNS binding buffer (assumed for nsRBNS): 25 mM Tris pH 7.5, 150 mM KCl, 3 mM MgCl2, 0.01% Triton X-100, 500 ug/ml BSA, 20 U/ml SUPERase-In, 4 C; UNK is unkempt and MSI1 is Musashi-1; names of the RNAs are library labels; protein concentration not given here; high values mean tight binding).
With B1 the binding signal was 1.23 enrichment R. B2 showed a binding signal of 1.12 enrichment R. In the case of B3, the binding signal is reported as 0.676 enrichment R. B4 gave a binding signal of 0.708 enrichment R. In the case of B5, the binding signal is reported as 1.11 enrichment R. B6 showed a binding signal of 0.617 enrichment R. With B7 the binding signal was 1.26 enrichment R. In the case of B8, the binding signal is reported as 0.349 enrichment R. B9 gave a binding signal of 1.02 enrichment R. Work on B10 yielded a binding signal of 0.705 enrichment R. Work on B11 yielded a binding signal of 2.43 enrichment R. B12 showed a binding signal of 0.607 enrichment R. For B13, the binding signal was 0.566 enrichment R. B14 was tested, and the binding signal was 0.432 enrichment R.
